# Test results from article PMC4336329 (PLoS ONE, 2015).
# Among all 310,000 compounds or so, about 14,000 (4.5%) showed an effect of 50% or more. The effect is printed as a negative number. The list shows a part of the results.
# Target: human ether-à-go-go-related gene (hERG) potassium channel (human, UniProt Q12809)
# Assay: primary screen, population patch clamp on CHO cells stably expressing hERG
# 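Note: peak tail current of the secondary pulse compared with the same well before compound.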
# Chain of human ether-à-go-go-related gene (hERG) potassium channel (Q12809 whole entry, looked up): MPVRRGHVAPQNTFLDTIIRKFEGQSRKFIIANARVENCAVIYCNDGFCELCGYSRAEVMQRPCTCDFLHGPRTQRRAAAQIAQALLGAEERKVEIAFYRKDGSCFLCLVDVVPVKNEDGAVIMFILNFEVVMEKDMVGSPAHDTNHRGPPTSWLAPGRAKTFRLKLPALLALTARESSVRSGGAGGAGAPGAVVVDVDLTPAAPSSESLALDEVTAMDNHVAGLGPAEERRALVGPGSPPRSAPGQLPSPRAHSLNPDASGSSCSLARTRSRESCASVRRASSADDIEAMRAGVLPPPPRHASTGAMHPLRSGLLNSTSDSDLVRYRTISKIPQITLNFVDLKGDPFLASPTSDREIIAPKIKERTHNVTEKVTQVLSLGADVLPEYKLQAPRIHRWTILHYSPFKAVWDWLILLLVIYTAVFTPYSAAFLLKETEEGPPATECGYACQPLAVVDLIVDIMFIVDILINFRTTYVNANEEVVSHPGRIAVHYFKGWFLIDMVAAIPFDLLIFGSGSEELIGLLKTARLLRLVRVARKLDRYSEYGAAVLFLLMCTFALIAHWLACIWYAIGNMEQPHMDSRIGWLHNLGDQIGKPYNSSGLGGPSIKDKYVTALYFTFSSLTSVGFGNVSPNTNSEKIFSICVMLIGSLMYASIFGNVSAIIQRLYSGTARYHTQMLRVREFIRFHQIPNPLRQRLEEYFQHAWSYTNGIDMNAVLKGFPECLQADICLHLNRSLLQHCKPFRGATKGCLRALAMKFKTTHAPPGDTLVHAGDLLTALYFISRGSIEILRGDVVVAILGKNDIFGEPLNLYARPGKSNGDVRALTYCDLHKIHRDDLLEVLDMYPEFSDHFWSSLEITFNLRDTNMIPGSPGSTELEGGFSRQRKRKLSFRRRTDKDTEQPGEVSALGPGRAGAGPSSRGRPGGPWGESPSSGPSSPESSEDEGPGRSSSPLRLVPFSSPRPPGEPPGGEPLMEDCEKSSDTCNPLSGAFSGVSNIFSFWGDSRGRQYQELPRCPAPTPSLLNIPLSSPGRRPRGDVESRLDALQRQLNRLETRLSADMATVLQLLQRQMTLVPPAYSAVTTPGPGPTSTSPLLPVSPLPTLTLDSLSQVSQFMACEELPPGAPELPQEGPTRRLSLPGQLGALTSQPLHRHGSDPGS
row,SMILES,"hERG current change (%, negative = inhibition) at 10uM"
1,Cn1nc(C(C)(C)C)cc1C(=O)NCc1cc(F)cc2c1OCOC2,1.16%
2,O=C(Nc1ccccc1-c1ccccc1)C1CCCC1,-11.6%
3,CN(c1ccccc1C(=O)O)S(=O)(=O)c1ccc2c3c(cccc13)C(=O)N2,2.27%
4,Cc1ccc(C)c(N2CCN(CCN3CCCCC3)CC2)c1.Cl,-3.6%
5,O=C(c1cccs1)N1CCN(C23CC4CC(CC(C4)C2)C3)CC1,-35.8%
6,CCCC(C)C(=O)NCc1ccncc1 (centres unmarked),8.84%
7,COc1ccc2sc(N3C(=O)CC(Cc4cccc(C)c4)C3=O)nc2c1 (centres unmarked),-22.9%
8,CC(C(=O)Nc1cc([N+](=O)[O-])ccc1Cl)N1CCN(c2ccccc2O)CC1 (centres unmarked),-1.79%
9,CC(=O)c1cnc2nc(SCc3ccc(Cl)cc3)nn2c1C,-12.5%
10,CCOC(=O)C1CCCN(C(=O)CNC(=O)c2nn(-c3ccc(OC)c(Cl)c3)c(=O)c3ccccc23)C1 (centres unmarked),-5.66%
11,CCOC(=O)c1c(C)[nH]c(C)c1S(=O)(=O)N1CCN(c2cccc(C)c2)C(C)C1 (centres unmarked),-2.7%
12,CCCCN(C(=O)Cn1nnc2ccccc21)C(C(=O)NCCOC)c1ccc(OC)cc1 (centres unmarked),-4.51%
13,CC(=O)n1cc([C@H]2C=C(C(=O)N3CCOCC3)O[C@@H](OCc3ccc(CO)cc3)C2)c2ccccc21,-55.2%
14,NC(=O)c1ccc2c(c1)S(=O)(=O)c1ccccc1C2=O,28.9%
15,O=C(Nc1cccc(OC(=O)N2CCOCC2)c1)N1CCOCC1,22.6%
16,Fc1ccc(CSc2nncn2NC/C=C/c2ccccc2)cc1,-43.7%
17,CC1=CC(C)(C)N(S(=O)(=O)c2ccc(F)cc2)c2ccc(C)cc21,-6.32%
18,O=C(Nc1ccncc1)C1c2ccccc2Oc2ccccc21,6.78%
19,S=C1Nc2cc(Cl)ccc2Sc2ccccc21,23%
20,O=C(NNC(=O)c1ccc(Br)s1)c1ccc(F)c(S(=O)(=O)N2CCOCC2)c1,-21.2%
21,FCCCOc1ccc(CN2CCN(c3ccccc3F)CC2)cc1,-42.2%
22,Cc1ccc(NC(=O)C(C)Oc2ccccc2)cc1S(=O)(=O)N1CCCCCC1 (centres unmarked),-7.7%

row,SMILES,"hERG current change (%, negative = inhibition) at 10uM"
1,CCOC(=O)CSc1ccc(-c2nc3cc(C)c(C)cc3[nH]2)cn1,19.1%
2,CC(=O)c1nnn(-c2nc(N)nc(N(c3ccccc3)c3ccccc3)n2)c1C,-1.85%
3,COc1ccccc1CNS(=O)(=O)c1cc(-c2cc(C)no2)ccc1C(C)C,5.07%
4,O=C1C(=O)N(CCCN2CCOCC2)C(c2ccc(Cl)cc2)/C1=C(\O)c1ccc2c(c1)OCCO2 (centres unmarked),15.9%
5,Cn1nc(C(=O)OCC(=O)Nc2ccccc2[N+](=O)[O-])c2ccccc2c1=O,-0.623%
6,Cc1cc(NC(=O)CCCn2cc([N+](=O)[O-])cn2)n(Cc2ccc(F)cc2)n1,-40.1%
7,O=C(Nc1ccccc1)n1cc(-c2ccccn2)c(N2CCOCC2)n1,-4.57%
8,COc1cccc(C(=O)NC2CC(C)(C)NC(C)(C)C2)c1OC,-3.54%
9,C#CCn1c(C)cc(C)c(S(=O)(=O)c2ccccc2)c1=O,10.1%
10,O=C(CN(Cc1ccco1)C(=O)c1ccc(F)cc1F)Nc1ccccc1C(F)(F)F,-21.5%
11,CC1CCN(C(=O)C2CCN(S(=O)(=O)c3cccc4nsnc34)CC2)CC1,-24.6%
12,Cc1ccc(S(=O)(=O)NCC(=O)NCCc2c[nH]c3ccccc23)cc1C,3.3%
13,COc1cccc(C(=O)N2CCC(N3CC(C)OC(C)C3)CC2)c1.O=C(O)C(=O)O (centres unmarked),14.4%
14,O=C(Nc1ccc(F)cc1)N1CCCN(c2ccc(C(F)(F)F)cn2)CC1,-47.9%
15,CN1CCN(C(=O)c2cc3nc(-c4ccccc4)cc(-c4ccccc4)n3n2)CC1,-38.3%
16,COc1ccc(N(C(C)C(=O)NCCSCc2cccc(Cl)c2)S(C)(=O)=O)cc1 (centres unmarked),-13.3%
17,CN(CCOc1ccccc1)C(=O)c1ccc(Cl)c(S(=O)(=O)N2CCCCC2)c1,-67.4%
18,Cc1cccc2c(=O)cc(C)n(CC(=O)N3CCCCC3)c12,3.57%
19,O=C(CCNC(=O)c1ccc(Cl)cc1)NC1CCCCCC1,-32.3%
20,NC(=O)CSc1nc2cccnc2n1-c1ccc(F)cc1,14%
21,CCOC(=O)C1CCCN(CC(=O)Nc2nccs2)C1 (centres unmarked),-2.49%
22,CC1Cc2ccccc2N1C(=O)CSc1nnc2sc3ccccc3n12 (centres unmarked),-10.9%

row,SMILES,"hERG current change (%, negative = inhibition) at 10uM"
1,Cc1c([N+](=O)[O-])c(C(=O)N2CCCC2)nn1C,-3.4%
2,CCOC(=O)N1C(=O)c2cc(OC)ccc2S1(=O)=O,13.1%
3,CCN(CC)CCCn1c2c(c(SCC(=O)Nc3cc(OC)cc(OC)c3)nc1=O)CCC2,-64.4%
4,O=S(=O)(NCC(c1ccco1)N1CCN(c2ccc(F)cc2)CC1)c1ccc2c(c1)OCCO2 (centres unmarked),6.14%
5,COc1ccccc1Nc1nc(NCCO)nc(N)c1[N+](=O)[O-],2.88%
6,CCCc1cc(C(=O)Nc2cccc([N+](=O)[O-])c2)cs1,-3.62%
7,Cn1c(=O)[nH]c(=O)c2c1nc(N/N=C/c1cccnc1)n2Cc1ccc(Cl)cc1,23.1%
8,CC(C)(CNC(=O)c1ccc([N+](=O)[O-])c(Cl)c1)CNC(=O)c1ccc([N+](=O)[O-])c(Cl)c1,-19.1%
9,COCc1ccccc1C1=CC(=O)C[C@H](c2ccc(OC)cc2)C1,-12.3%
10,O=C(Nc1nnc(CCN2CCCCC2)s1)c1cccc(Cl)c1,-10.8%
11,CCc1ccc(OCC(=O)N2CCN=C2c2ccccc2)cc1,-5.36%
12,Cn1cccc1CNC(=S)Nc1ccccc1F,1.49%
13,NC(=O)COc1ccc(-c2noc(COc3ccccc3[N+](=O)[O-])n2)cc1,2.03%
14,CCOC(=O)c1[nH]c2ccc(OC)cc2c1NS(=O)(=O)c1ccc(Cl)s1,12.9%
15,CCOCCCNc1ncnc2c1nc1n2CCCC1,17.2%
16,O=C(Nc1nc(-c2ccccc2)c(C(=O)c2ccccc2)s1)c1ccc(S(=O)(=O)N2CCCC2)cc1,-3.8%
17,CCN(c1ccc(OC)cc1)S(=O)(=O)c1nnc(NC(=O)COc2ccccc2)s1,24.3%
18,CCCCN(C(=O)c1cccc(-n2cccc2)c1)c1c(N)n(CCCC)c(=O)[nH]c1=O,7.97%
19,Cc1ccc(CNC(=O)Cn2c(=O)n(CC(=O)N3CCCCC3)c(=O)c3sccc32)cc1,14%
20,O=C(O)c1ccccc1N/N=C/C1=C(N2CCOCC2)C(=C\c2ccccc2)/CC1,18.9%
21,O=C(O)c1cc(-c2ccco2)nn1-c1cccc(Cl)c1,22.8%
22,S=C(NCCc1c[nH]c2ccccc12)NC1CCCCC1,5.36%

row,SMILES,"hERG current change (%, negative = inhibition) at 10uM"
1,O=C(NCCCn1ccnc1)c1cc(-c2ccc(Cl)cc2)nc2ccccc12,-68.8%
2,COc1cc(-c2nc3ccccc3c(=O)n2N)cc(OC)c1OC,9.53%
3,Cn1c(SCC(=O)N/N=C/c2cccnc2)nnc1-c1ccccc1,17.4%
4,CCOC(=O)C1CCN(C(=O)c2oc3ccc4c(c3c2C)C(O)CC2(CCCCC2)O4)CC1 (centres unmarked),0.656%
5,COc1ccc(OCC(=O)N2c3ccccc3CCc3ccccc32)cc1,-1.14%
6,O=C(N/N=C/c1ccc(-c2ccc([N+](=O)[O-])cc2)o1)C(O)c1ccccc1 (centres unmarked),-41%
7,COc1ccc(Cc2nc(-c3ccc(Br)o3)no2)cc1OC,-23.2%
8,CCCN(CC(=O)Nc1ccccc1C)C(=O)COc1c(C)cccc1C,-4.72%
9,Cc1nn(Cc2ccc(Cl)cc2Cl)c(C)c1NC(=O)c1sc2ccccc2c1Cl,5.36%
10,CC(C)(C)c1ccc(-n2ncc3c2CCCC3NC(=O)c2ccncc2)cc1 (centres unmarked),-12.3%
11,O=C(Nc1ccc(Br)cc1)c1ccco1,0.736%
12,COCOc1ccc(C2CC(=O)c3c(OCOC)cc(OCOC)cc3O2)cc1 (centres unmarked),-6.2%
13,COC(=O)c1n[nH]nc1-c1ccccc1,-8.76%
14,Cc1cccc(CSc2nc3ccncc3n2CC(=O)Nc2cc(C)cc(C)c2)c1,9.09%
15,O=C1CCCCCCCCCC/C(=N\O)CCCO1,5.78%
16,O=C1/C(=C\c2cc3c(cc2Cl)OCO3)N2CCC1CC2,4.47%
17,CC1(C)Oc2ccc3ccc(=O)oc3c2/C(=C/NC2CCCCC2)C1=O,-4.76%
18,O=C(Nc1ccc2c(c1)COC2=O)c1ccc(Cl)c(Cl)c1,24%
19,CCOC(=O)N1CCN(C(=O)c2cn(CC)c3ccc(S(=O)(=O)N(C)C4CCCCC4)cc3c2=O)CC1,-17.3%
20,CC(C)c1ccc(OCC(O)CN2CCCC2)cc1.Cl (centres unmarked),-11.1%
